From PubChem BioAssay (Tox21)
“And” between values parts separate entries of the source, which are not always exact repeats. Identical values can stand only once. The inconclusive results got no clear call from the source; some entries with a clear call stand among them for comparison. For part of these data: Potencies beside an inconclusive call are fits to weak or partial responses and may not hold up. The source made the active and inactive calls. Unless noted, the call rests on the fitted dose curve; in most records, active means well fitted curve in the direction sought with a large enough effect in the repeat runs; inconclusive means weak or mixed curves; inactive means no such curve, though single readings can be large; an effect the other way counts as inactive or inconclusive.

Experiments:
[1] = qHTS assay for small molecule agonists of the p53 signaling pathway (AID 651631; calls by dose curve; further: nearly all actives have a fitted effect of over 15% in size; further: potency means the concentration at half of the fitted maximal effect; on activation: on the % scale 0 is the no-effect control and ±100 the full control effect); details: HCT-116 p53RE-bla reporter, beta-lactamase FRET ratio, 16 h; activation: at 73.3 µM (top of the series) unless noted
Outline: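 Quantitative high-throughput format: 4,000 p53RE-bla HCT-116 cells/well, 5 h pre-incubation, 16 h compound exposure at 37 °C, 2 h room-temperature substrate step, fluorescence intensity measured.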

[2] = qHTS assay for small molecule agonists of the p53 signaling pathway - cell viability (AID 651633; calls by dose curve; further: potency means the concentration at half of the fitted maximal effect; nearly all actives have a fitted effect of over 30% in size)
Outline: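 p53RE-bla cells, seeded at 4,000 per well and rested 5 h at 37 C/5% CO2, received compounds in DMSO for 16 h at 37 C. CellTiter-Glo was then added, and luminescence was read after 30 min at room temperature to gauge cytotoxicity.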

[3] = target: Glucocorticoid receptor (Homo sapiens) (UniProt P04150); assay: qHTS assay to identify small molecule agonists of the glucocorticoid receptor (GR) signaling pathway (AID 720691; active means well fitted activation curve with a large enough effect in the signal ratio in the repeat runs, not every such curve was filed as active; inconclusive means weak or mixed curves, or effect the other way; inactive means no such curve, though single readings can be large or run the other way; the % refers to the signal ratio; further: potency means the concentration at half of the fitted maximal effect); details: GR-bla HeLa, beta-lactamase reporter ratio, 18 h; activation: at 62.4 µM (top of the series) unless noted
Outline: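 Steps: seed GR-bla HeLa cells, incubate 4 h at 37 C/5% CO2; pin-transfer DMSO-dissolved compounds; incubate 18 h at 37 C; add LiveBLAzer B/G FRET substrate; after 2 h at room temperature, measure fluorescence.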

[4] = target: Glucocorticoid receptor (Homo sapiens) (UniProt P04150); assay: qHTS assay to identify small molecule antagonists of the glucocorticoid receptor (GR) signaling pathway (AID 720692; active means well fitted inhibition curve with a large enough effect in the signal ratio in the repeat runs, not every such curve was filed as active; inconclusive means weak or mixed curves, or effect the other way; inactive means no such curve, though single readings can be large or run the other way; the % refers to the signal ratio; further: potency means the concentration at half of the fitted maximal effect); details: GR-bla HeLa, beta-lactamase FRET ratio, dexamethasone-stimulated, 18 h; activity change, negative = inhibition: at 58.5 µM (top of the series) unless noted
Outline: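 Antagonism was scored as loss of dexamethasone-driven (5 nM final) reporter signal in HeLa cells bearing a glucocorticoid response element–beta-lactamase construct, after 18 h compound exposure at 37 C and 2 h FRET substrate loading.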

[5] = qHTS assay to identify small molecule antagonists of the glucocorticoid receptor (GR) signaling pathway - cell viability counter screen (AID 720693); details: GR-bla HeLa viability, CellTiter-Glo luminescence, 18 h, with 5 nM dexamethasone present; viability change, negative = cytotoxic: at 58.5 µM (top of the series) unless noted; further: potency means the concentration at half of the fitted maximal effect; nearly all actives have a fitted effect of over 55% in size
[6] = qHTS assay for identifying genotoxic compounds that show differential cytotoxicity against isogenic chicken DT40 cell lines with known DNA damage response pathways - Rev3 mutant cell line (AID 743014); details: chicken DT40 Rev3-/- viability, CellTiter-Glo, 40 h; activity, negative = cytotoxicity: at 68.4 µM (top of the series); further: potency means the concentration at half of the fitted maximal effect; nearly all actives have a fitted effect of over 55% in size
[7] = qHTS assay to identify small molecule antagonists of the androgen receptor (AR) signaling pathway - cell viability counter screen (AID 743033; further: nearly all actives have a fitted effect of over 45% in size; further: potency means the concentration at half of the fitted maximal effect; on activity change, negative = cytotoxicity: on the % scale 0 is the no-effect control and ±100 the full control effect); details: AR-bla HEK293 viability, CellTiter-Glo luminescence, 16 h; activity change, negative = cytotoxicity: at 58.5 µM (top of the series)
[8] = qHTS assay for small molecule disruptors of the mitochondrial membrane potential (AID 720635); details: HepG2 mitochondrial membrane potential, Mito-MPS dye ratio; further: on the % scale 0 is the no-effect control and ±100 the full control effect
Outline: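 HepG2 cells (2,000/well) attached overnight at 37C, then took compound for 1 hr at 37C, 5% CO2. Mito-MPS dye was added for 30 min; fluorescence was read at 490/535 nm (monomers) and 540/590 nm (aggregates).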

[9] = qHTS assay for identifying genotoxic compounds that show differential cytotoxicity against isogenic chicken DT40 cell lines with known DNA damage response pathways - wild type cell line (AID 743012); details: DT40 wild type chicken cells viability, CellTiter-Glo, 40 h; activity change, negative = cytotoxicity: at 68.4 µM (top of the series) unless noted; further: on the % scale 0 is the no-effect control and ±100 the full control effect; nearly all actives have a fitted effect of over 60% in size
Outline: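 Cytotoxicity in repair-proficient parental chicken DT40 cells serves as the comparator for Rad54/Ku70- and Rev3-deficient lines. Cells were exposed to compounds for 40 h at 37 C/5% CO2, and ATP-based luminescence (CellTiter-Glo) measured viability.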

[10] = ratio activity, negative = MMP loss: at 83.2 µM (top of the series) unless noted
Tags describe the fitted curve by direction and shape or compound fluorescence and quenching.

Chain of UniProt P04150 (P04150 whole entry, looked up): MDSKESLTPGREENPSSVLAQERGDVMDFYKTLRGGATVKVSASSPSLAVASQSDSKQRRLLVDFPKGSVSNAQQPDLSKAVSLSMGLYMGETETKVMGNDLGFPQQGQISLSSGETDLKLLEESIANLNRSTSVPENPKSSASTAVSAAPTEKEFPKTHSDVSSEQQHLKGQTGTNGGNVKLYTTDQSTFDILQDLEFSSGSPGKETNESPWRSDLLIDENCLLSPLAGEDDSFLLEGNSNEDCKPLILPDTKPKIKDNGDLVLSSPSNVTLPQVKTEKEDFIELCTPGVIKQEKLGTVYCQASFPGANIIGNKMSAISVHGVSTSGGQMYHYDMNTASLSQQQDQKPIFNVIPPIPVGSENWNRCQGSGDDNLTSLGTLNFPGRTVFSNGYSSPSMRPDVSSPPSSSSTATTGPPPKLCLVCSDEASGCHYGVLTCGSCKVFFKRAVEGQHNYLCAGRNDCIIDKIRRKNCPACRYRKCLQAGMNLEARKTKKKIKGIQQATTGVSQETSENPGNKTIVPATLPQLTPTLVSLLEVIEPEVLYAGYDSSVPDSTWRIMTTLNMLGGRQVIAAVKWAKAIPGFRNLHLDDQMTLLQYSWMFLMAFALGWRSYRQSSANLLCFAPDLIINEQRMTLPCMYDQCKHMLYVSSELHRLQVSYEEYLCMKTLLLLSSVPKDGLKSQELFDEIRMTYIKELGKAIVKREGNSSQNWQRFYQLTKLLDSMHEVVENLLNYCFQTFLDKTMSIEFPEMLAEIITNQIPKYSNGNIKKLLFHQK

With `Oc1ccc(C(c2ccc(O)cc2)(C(F)(F)F)C(F)(F)F)cc1` the Potency [1] was active: 60.8 µM and active: 54.5 µM, the Potency [2] was active: 68.2 µM and active: 43.3 µM and the Potency [3] was inconclusive: 61.4 µM [cytotoxic, single point] and inconclusive: 61.7 µM [single point]. The Potency [4] was inconclusive: 15.4 µM [fluorescent, partial curve] and inconclusive: 61.7 µM [cytotoxic, single point], the Potency [5] was inconclusive: 54.9 µM [cytotoxic, single point] and the Potency [6] was inconclusive: 21.6 µM [cytotoxic, partial curve, poor fit] and inconclusive: 34.4 µM [cytotoxic, partial curve, poor fit]. The Potency [7] was inconclusive: 48.8 µM [cytotoxic] and the activity change, negative = cytotoxicity [7] was inconclusive: -45.9% [cytotoxic].
In the case of `CC[C@H]1C[C@@H]2C[C@H]3c4[nH]c5ccc(OC)cc5c4CCN(C2)[C@@H]13`, the Potency [1] is reported as inconclusive: 9.52 µM [fluorescent, full curve] and the ratio activity, negative = MMP loss [8, 10] is reported as inconclusive: 6.25%.
In the case of `O=[N+]([O-])c1ccccc1`, the Potency [1] is reported as “inactive”, the ratio activity, negative = MMP loss ([8]; at 95.3 µM (top of the series)) is reported as inactive: 11.6% and the ratio activity, negative = MMP loss [8, 10] is reported as inconclusive: -18.1% and inconclusive: 3.52%. For the same compound, the activity change, negative = cytotoxicity [9] was inconclusive: 4.92% [at 95 µM] and the Potency [6] was inconclusive: 63.2 µM [cytotoxic, single point].
